Data reported in the RNAGym collection of RNA variant scans (doi:10.1073/pnas.2313332121).
Variants at the floor of the assay are shown more often than the library holds them.

B1: TPR 5TU (parent)
chain: GGAUCUUCUCGAUCUAACAAAAAAGACAAAUCUGCCACAAAGCUUGAGAGCAUCUUCGGAUGCAGAGGCGGCAGCCUUCGGUGGCGCGAUAGCGCCAACGUUCUCAACUAUGACACGCAAAACGCGUGCUCCGUUGAAUGGAGUUUAUCAUG

Variants of: B1
Assay: polymerase ribozyme fitness, log enrichment relative to wild type (log ratio); higher = more active; in vitro selection for triplet polymerase activity
Summary of the method: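 One round of in vitro selection, in triplicate, was applied to PCR-built, transcribed mutant libraries of each subunit of a heterodimeric triplet polymerase ribozyme. The steps were annealing with a biotinylated primer, partner subunit and triplets, incubation frozen at −7 °C, gel excision of extended constructs, streptavidin-bead capture and RT-PCR. Fitness is the logarithm, base 2, of genotype enrichment over wild-type enrichment from inverse-variance-weighted replicate averages of Illumina-sequenced inputs and outputs, keeping genotypes with ≥10 input reads and ≥1 read per output.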

Variant | polymerase ribozyme fitness (log ratio)
A66C A107C | ≤ -4.2
G67U C85A C93U | ≤ -4.2
C69G U78A G94U A97C C99U | ≤ -4.2
G65U U78A | -1.52
G65U U78G | ≤ -4.2
G68C G92A A119U C125G | ≤ -4.2
G67C C79A G86A C96U G124C | ≤ -4.2
G68U G136A | -3.9
G68U U77A C96U | ≤ -4.2
C69U C72G G80C C85G A107G A110C U139G C149U | ≤ -4.2
G68A C79U U139G U146C | ≤ -4.2
A66C U90G C93U G94A C96A U144G | ≤ -4.2
G68A G70A A106G | ≤ -4.2
G67U G94A A121U U148A G152U | ≤ -4.2
G68A C87A C105G | ≤ -4.2
C69U G88U C93U C123G | ≤ -4.2
A66C G136A | ≤ -4.2
C69U G84U G133C | -3.62
C69U G136U U146C | -2.94
C69A C79A A115U C118A | ≤ -4.2
C69G A73G C75U A89U G94U A138G G140A A142C | ≤ -4.2
G68U A73G C87U A121U C125A C149G | ≤ -4.2
C69U U77A C87G U109C G124U | ≤ -4.2
A66U G86U C103A | ≤ -4.2

Variant | polymerase ribozyme fitness (log ratio)
G70A A110G A142G | -4.14
A66C A137U A138U U146G | ≤ -4.2
G68A A119G G152U | ≤ -4.2
G68A G88A G140A G141C | ≤ -4.2
C69A G70C A106G C131U A137C | ≤ -4.2
G68A U104C A107G G128C | ≤ -4.2
A66U C87A G100C A142U | ≤ -4.2
G68C A122C | ≤ -4.2
G68C G88U U104G C114U U127C | ≤ -4.2
A66U G68A A73G A97G A121C G140C | ≤ -4.2
G68C U90C C96U C99U C114G A120C A121C | ≤ -4.2
C69G A121U | -2.04
A66G A98U U134G | ≤ -4.2
G67C C93A | ≤ -4.2
G67C C93G | ≤ -4.2
G67A C103A A107G G117U | ≤ -4.2
G67U C87G U130A | ≤ -4.2
A66C C99U G124C U144A | ≤ -4.2
A66C C123G G140A | ≤ -4.2
G65U G92C C116G | ≤ -4.2
G67A U82A U90C C99A G126A | ≤ -4.2
G68A C93A A142U | ≤ -4.2
G70A C93A C103G | ≤ -4.2
G68U G133U | ≤ -4.2

Variant | polymerase ribozyme fitness (log ratio)
A66G C72G C85G G88U U127C G140U G141C | ≤ -4.2
G68U C85A | ≤ -4.2
G68U G92C G143U | ≤ -4.2
G68C C79A G83U U101A U104C C108G A142G | ≤ -4.2
G70A G86C | ≤ -4.2
G68A C125A | ≤ -4.2
G68U U109G G124C | ≤ -4.2
G68A C87U A98U | ≤ -4.2
G68U A89C U145G | ≤ -4.2
A66C G68C A122U | ≤ -4.2
C69A G70A G92C G152A | ≤ -4.2
C69A C76A G83U G88U | ≤ -4.2
G68A C105U G126A | ≤ -4.2
C69G A73U A98U A115G U134A U146G | ≤ -4.2
G68A C93A C108A G143U | ≤ -4.2
G68A G83C U90G C118U | ≤ -4.2
A66G C96U | -3.66
A66G G68A A73C C85G A91C | ≤ -4.2
C69G C75U G88U | ≤ -4.2
C69A C96A C99G | ≤ -4.2
A66C A73G C85G U90G C96U | ≤ -4.2
G68A A73U | ≤ -4.2
A66C A91C | ≤ -4.2
A66U C76U | ≤ -4.2

Variant | polymerase ribozyme fitness (log ratio)
G70A A91U A122G G152U | ≤ -4.2
C69U G94C | -1.65
G68C C96G U139A | ≤ -4.2
G68A G74C G80A G81A U148G | ≤ -4.2
G67C U77G C85A C116U | ≤ -4.2
G68U G88C G112C G140C U151A | ≤ -4.2
G70A G88C U146A | ≤ -4.2
A66C A73C | ≤ -4.2
C69A C85U C93U | ≤ -4.2
G68A C85A C116U C131U U146A C149G | ≤ -4.2
A66G C76A C129U A138C | ≤ -4.2
G67A G74C G94A A119G | ≤ -4.2
C69G A91U C99U C125U G133A U134A | ≤ -4.2
A66U G83U U127G | ≤ -4.2
G70A G94A U135C A150C | ≤ -4.2
G68A C76A C95U C125U | ≤ -4.2
A66C G84A G141C C149A | ≤ -4.2
G68A A107C C125A G126A | ≤ -4.2
G68A U90G C96U A115G | ≤ -4.2
G68C U77G G80A G88A C118U A121C | ≤ -4.2
C69U C76A G86C U146G | ≤ -4.2
A66G A106C | ≤ -4.2
G68U G80U C85G | ≤ -4.2
G68C G83C | ≤ -4.2

Variant | polymerase ribozyme fitness (log ratio)
G70A C85U | -3.46
G70A C85G | ≤ -4.2
G70A C79A C87G C99U U111C | ≤ -4.2
G68A C76G G94A | ≤ -4.2
A66G G83C A110C | ≤ -4.2
G67C G94A U139A A142U | ≤ -4.2
G67U G81A C93G C105U | ≤ -4.2
G67A C79G C93G U104G | ≤ -4.2
C69U G71U G80C U82G C93G G117A | ≤ -4.2
G67U C87U G152A | ≤ -4.2
A66U G88U A107U U135C | ≤ -4.2
G67U G83U | ≤ -4.2
A66U G80C G84A | ≤ -4.2
A66U G81A A91U A121U | ≤ -4.2
C69G A89U | -1.45
G70A G80U C125A G140C | ≤ -4.2
C69U G128C U130C C132G U135A A138C | ≤ -4.2
A66U U111A U139C | ≤ -4.2
G68A G83A C99A | ≤ -4.2
C69A C85A G112U | ≤ -4.2
C69A C75U A106G A120G | -2.33
G68C U101A G143A | ≤ -4.2
G68U U77G G80A | ≤ -4.2
G68A U82G G88U | ≤ -4.2

Variant | polymerase ribozyme fitness (log ratio)
C69G A119U | -1.72
A66G A73G C93U A120G | ≤ -4.2
G68A U101A U139A U144A | ≤ -4.2
A66G U77A G83U U104A G117U | ≤ -4.2
G67A C99U | ≤ -4.2
A66G G84A G141C | ≤ -4.2
G68U U134G | ≤ -4.2
A66U C85U C93U A115U A150C | ≤ -4.2
G67U C72U G92A C99U | ≤ -4.2
A66C U148G | ≤ -4.2
C69U C116U U135A G136U | -4.18
G68A A106C | -4.13
G68C C87G G88U A97C C123U U144A | ≤ -4.2
C69A C76G G83A | ≤ -4.2
A66C C87U C123U G141U | ≤ -4.2
G67A C99U A107U G143C | ≤ -4.2
G68C C99G | ≤ -4.2
C69G C76A G152U | -4.17
G68A C85A A98G C105G | ≤ -4.2
C69A A73C G86A A119C U145A | ≤ -4.2
G67C A91C U148G | ≤ -4.2
G67C G92A C96U C118U | ≤ -4.2
C69G C79G U90A U102G | ≤ -4.2
A66G U90G C93G | ≤ -4.2

Variant | polymerase ribozyme fitness (log ratio)
A66U G81U C96U | ≤ -4.2
C69U C87U A91C U135A | ≤ -4.2
A66G G84U G136U | ≤ -4.2
G70A C96U A121G G128U U130C C131G U144G | ≤ -4.2
G67C C85G C99G G117A G133C U139C U144C U148C | ≤ -4.2
C69A C85U A106G A121C G124U G140C | ≤ -4.2
G67C G88C | ≤ -4.2
G67A C87U A122C | ≤ -4.2
G68C U78A | ≤ -4.2
A66G U102A U135C | ≤ -4.2
G68A C85G G141U | ≤ -4.2
G68C G86C G88A C125U G141C | ≤ -4.2
G68A C87G G128U | ≤ -4.2
C69G G86C C103U | ≤ -4.2
G68A G88C A110C U135C | ≤ -4.2
C69U G70A C99A G100A | ≤ -4.2
C69G C75G C87A C93U U145A | ≤ -4.2
G68A G83A C116U | ≤ -4.2
G68U C87A G152A | ≤ -4.2
G68C C85A C93U U104A | ≤ -4.2
A66C | -4.16
A66G | -2.32
A66U | -3.46
